# In PubChem BioAssay AID2451 (National Center for Advancing Translational Sciences (NCATS), 2010):
# Among all 290,000 compounds or so, about 2,100 (0.72%) were called active. The shares of active, inactive and inconclusive entries below differ from those in the screen. Calls come from the whole dose curve; as a rule, active = well fitted inhibition curve with a large enough effect; inconclusive = small, poorly fitted or top-dose-only effect, or effect the other way; inactive = flat fitted curve, though single readings scatter. Where the call is inconclusive, the potency comes from a doubtful curve fit.
# Target: Fructose-bisphosphate aldolase (Giardia intestinalis (strain ATCC 50803 / WB clone C6)) (UniProt A8B2U2)
# Sequence of UniProt A8B2U2 (A8B2U2 whole entry, looked up): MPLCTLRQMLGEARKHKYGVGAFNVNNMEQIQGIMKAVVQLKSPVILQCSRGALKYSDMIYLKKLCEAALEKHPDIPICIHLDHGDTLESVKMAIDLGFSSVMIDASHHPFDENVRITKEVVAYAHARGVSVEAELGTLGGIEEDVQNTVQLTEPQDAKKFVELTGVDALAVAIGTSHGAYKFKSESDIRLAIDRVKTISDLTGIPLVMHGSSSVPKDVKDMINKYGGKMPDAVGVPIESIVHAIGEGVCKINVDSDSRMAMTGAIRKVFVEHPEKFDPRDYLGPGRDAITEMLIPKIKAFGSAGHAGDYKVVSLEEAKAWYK
# Test: qHTS Assay for Inhibitors of Fructose-1,6-bisphosphate Aldolase from Giardia Lamblia; note: nearly all actives have a fitted effect of over 55% in size
# Settings: purified Giardia FBPA; activity, negative = inhibition: at 59.6 µM (top of the series) unless noted
# Procedure, shortened: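 40 nM FBPA preincubated 10 min at RT with compound (up to 57.5 uM final), then substrate plus GAPDH/TPI/NAD/arsenate coupling and diaphorase/resazurin added. Fluorescence read after 20 min at RT, 525/598 nm.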
# % is set by controls: 0 for no effect and ±100 for the full control effect; potency is the fitted concentration of half-maximal effect; tags give direction and shape of the fitted curve.
Compound,"activity, negative = inhibition",Potency
CC(=O)N[C@H]1C(O[C@@H]2O[C@H](C[C@@H](O)[C@H]3O[C@@H](N4CCC(=O)NC4=O)[C@H](O)[C@@H]3O)[C@H](O)[C@H](O)[C@H]2NC(=O)/C=C/CCCCCCCCCCC(C)C)OC(CO)[C@@H](O)[C@@H]1O (stereo not given in full),inactive: 6.14%,–
Cc1ccc(CNC(=O)CCC2CCCN(C(=O)c3ccc4c(c3)OCO4)C2)o1 (stereo not given),inactive: 0.689%,–
Cc1csc(N/N=C/c2ccc(O)c([N+](=O)[O-])c2)n1,–,"inconclusive: 22.3 µM [inhibitor, partial curve]"
Cc1c(C(=O)O)sc2nc(/C=C/c3ccccc3OC(F)F)[nH]c(=O)c12,–,"inconclusive: 39.8 µM [inhibitor, single point]"
COc1ccc(C(=O)CCC(=O)Nc2cccnc2)cc1OC,inactive: -4.65%,–
CN1C(=O)/C(=C/c2cccn2-c2ccc3ccccc3c2)C(=O)NC1=S,–,"inconclusive: 3.97 µM [inhibitor, partial curve]"
Oc1ccc(CNc2ccccc2O)cc1,–,"inconclusive: 12.6 µM [inhibitor, partial curve]"
O=C(Nc1nnc(C2=COCCO2)o1)c1ccc(S(=O)(=O)N2CCCCC2)cc1,–,active: 15.8 µM
COCC(=O)O[C@]1(CCN(C)CCCc2nc3ccccc3[nH]2)CCc2cc(F)ccc2[C@@H]1C(C)C,–,"inconclusive: 19.9 µM [inhibitor, single point]"
O=C(NNC1=Nc2ccccc2SC1)c1ccccc1F,inactive: 6.85%,–
COc1ccc(C(Nc2ccccn2)c2c(NC(=O)c3ccco3)sc(C)c2C)cc1 (stereo not given),inactive: 0.404%,–
Cc1cc(NC(=O)c2cc(-c3ccccn3)nc3c(Cl)cccc23)no1,inactive: -0.791%,–
Cc1cc(Nc2c(C)n(C)n(-c3ccccc3)c2=O)n2c(nc3ccccc32)c1C#N,–,"inconclusive: 2.81 µM [inhibitor, full curve]"
Cc1cccc(CNC(=O)c2cc(S(=O)(=O)N3CCOCC3)cn2C)c1,inactive: 4.27%,–
CCOC(=O)CN1C(=O)N[C@@H](CCc2ccccc2)[C@@H](C(=O)OC)[C@H]1C,inactive: 5.57% [at 12.9 µM],–
O=C(CCCOc1ccc(Cl)cc1Cl)N/N=C/c1cccc([N+](=O)[O-])c1,–,"inconclusive: 15.8 µM [inhibitor, partial curve]"
CN(c1cccc(NC(=O)CN(c2cccc(Cl)c2)S(=O)(=O)c2ccccc2)c1)S(C)(=O)=O,inactive: -2.41%,–
Cc1cc(Br)ccc1OCCCCN1CCCCC1,–,"inconclusive: 15.8 µM [inhibitor, partial curve]"
CCN(C(=O)C(=O)c1c[nH]c2ccccc12)c1ccccc1,inactive: -9.56%,–
CCN(CC)CCN(Cc1cc2cc3c(cc2[nH]c1=O)OCCO3)C(=S)NCC1CCCO1 (stereo not given),–,active: 7.92 µM
Cc1cc2c(cc1C)NC(c1c(C)n(C)n(-c3ccccc3)c1=O)C1=C(CC(C)(C)CC1=O)N2 (stereo not given),–,"inconclusive: 6.29 µM [inhibitor, full curve]"
CCOc1cc(C(F)(F)F)cnc1/C(N)=N/O,–,"inconclusive: 15.8 µM [inhibitor, single point]"
COc1cc(OC)c(OC)cc1/C=C1\Oc2cc(OCC(=O)N3Cc4ccccc4C[C@H]3C(=O)O)ccc2C1=O,–,"inconclusive: 12.6 µM [inhibitor, partial curve]"

Compound,"activity, negative = inhibition",Potency
COc1ccccc1CNC(=O)/C=C/c1ccc(Br)o1,–,"inconclusive: 15.8 µM [inhibitor, single point]"
CCn1c(SCC(=O)c2ccccc2)nnc1-c1cnccn1,–,"inconclusive: 15.8 µM [inhibitor, single point]"
O=[N+]([O-])c1ccc2nc(-c3ccccc3)cc(-c3ccccc3)c2c1,inactive: 1.48%,–
CCN1CCN(C(=O)NC2CCCCC2)CC1,–,"inconclusive: 12.6 µM [inhibitor, partial curve]"
CC(=O)Nc1cc(Cl)c(N=Cc2ccc(O)cc2O)cc1Cl,–,"inconclusive: 15.8 µM [inhibitor, single point]"
COc1ccc(CNc2ccc3c(c2)CCC3)cc1Br,–,"inconclusive: 31.6 µM [inhibitor, single point]"
OC(CN1CCOCC1)Cn1cnc2ccccc21 (stereo not given),inactive: 0.687%,–
Cc1ccc(S(=O)(=O)CCC(=O)NCCN2C(=O)S/C(=C/c3ccc(F)cc3)C2=O)cc1,inactive: -1.67%,–
Brc1cccc(OCCCN2CCCCCC2)c1,–,"inconclusive: 15.8 µM [inhibitor, partial curve]"
CCCCN=Cc1c(C)[nH]n(-c2ccccc2)c1=S,–,"inconclusive: 17.7 µM [inhibitor, single point]"
Cc1ccc(NC(=O)CCSc2ccccn2)cc1,inactive: -0.0478%,–
Cc1ccc(C(C)C)c(OCc2ccc(C(=O)N/N=C/c3ccc(O)c(O)c3)cc2)c1,–,"inconclusive: 11.2 µM [inhibitor, partial curve]"
COc1cc(C2CC(=O)N(CC(=O)NCc3ccco3)c3ccccc3S2)cc(OC)c1OC (stereo not given),inconclusive: 42.1% [activator],–
O=C(O)CCC(=O)c1ccc2c(c1)OCCCO2,inactive: 9.15%,–
COc1cc(C2Nc3cccc4cccc(c34)N2)ccc1O,–,"inconclusive: 28.2 µM [inhibitor, partial curve]"
COc1ccc(OCC(O)CN2CC(C)OC(C)C2)cc1 (stereo not given),inactive: -3.66%,–
O=C(N/N=C1/CCS(=O)(=O)c2ccc(F)cc21)c1ccccn1,–,"inconclusive: 15.8 µM [inhibitor, partial curve]"
O=C(Nc1nnc(-c2ccco2)o1)c1ccc(Cl)cc1,–,"inconclusive: 14.1 µM [inhibitor, partial curve]"
COc1cc(CN2CCN(C(=O)CC(C)C)CC2)cc(OC)c1OC,–,"inconclusive: 15.8 µM [inhibitor, partial curve]"
O=C1c2ccccc2C(=O)c2cc(S(=O)(=O)Nc3cccc4cccnc34)ccc21,–,"inconclusive: 19.9 µM [inhibitor, single point]"
Cc1[nH][nH]c(=O)c1C(c1ccccc1[N+](=O)[O-])C(C#N)C#N (stereo not given),–,"inconclusive: 15.8 µM [inhibitor, partial curve]"
O=C(CNC1CCCCC1)N1CCc2ccccc2C1,–,"inconclusive: 17.7 µM [inhibitor, single point]"
